Here are results for 40 compounds from the antibiotic and cytotoxicity screens of Wong et al. (2023).

The list shows a part of the results.

This experiment concerns HepG2. The experiment in a line: cytotoxicity call (relative viability < 0.9). Particulars: 10 µM.
In the case of `CCC(=O)OC(CC(=O)O)C[N+](C)(C)C.[Cl-]` (stereo not given), the cytotoxicity call was “inactive”.
Consider `COc1ccc(S(=O)(=O)Nc2ccc3c(c2)C(=O)N([C@H](C)CO)C[C@H](C)[C@@H](CN(C)S(=O)(=O)c2ccc(Cl)cc2)OCCCC[C@@H](C)O3)cc1`, for which the cytotoxicity call was “active”.
On to `C[C@@H]1CN([C@H](C)CO)C(=O)c2cc(NC(=O)CCC(F)(F)F)ccc2O[C@@H](C)CCCCO[C@H]1CN(C)C(=O)Nc1cccc2ccccc12`, for which the cytotoxicity call was “active”.
As for `C[C@@H]1CN([C@@H](C)CO)C(=O)CCCn2cc(nn2)CO[C@@H]1CN(C)S(=O)(=O)c1ccc(Cl)cc1`, the cytotoxicity call was “inactive”.
With `NC[C@@](O)(c1ccc(Cl)cc1)c1ccc(-c2cn[nH]c2)cc1`, the cytotoxicity call is “active”.
For `C[C@@H]1CCCCO[C@@H](CN(C)C(=O)C2CCCCC2)[C@@H](C)CN([C@@H](C)CO)C(=O)c2cc(NS(=O)(=O)c3ccccc3)ccc2O1`, the cytotoxicity call is “inactive”.
For `C[C@@H]1CN([C@@H](C)CO)C(=O)c2cc(C#CC3(O)CCCC3)cnc2O[C@@H]1CN(C)S(=O)(=O)c1ccccc1`, the cytotoxicity call was “inactive”.
`C[C@H](CO)N1C[C@H](C)[C@H](CN(C)C(=O)Nc2ccc(C(F)(F)F)cc2)Oc2ccc(NC(=O)Nc3ccc(F)cc3)cc2CC1=O`: the cytotoxicity call is “inactive”.
Take `COC(=O)[C@H](Cc1ccccc1)N1CC2=C[C@H](C3CC3)n3c(=O)n(C)c(=O)n3[C@@H]2[C@H]1[C@H](O)Cc1ccccc1`: the cytotoxicity call is “inactive”.
With `Cc1ccc(S(=O)(=O)N(C)C[C@H]2Oc3ccc(NS(=O)(=O)c4c(C)noc4C)cc3C(=O)N([C@@H](C)CO)C[C@@H]2C)cc1`, the cytotoxicity call is “inactive”.
Turning to `C=C(C(=O)O[C@H]1CC=C(C)C[C@H](O)[C@H]2[C@H](C)C(=O)O[C@@H]2/C=C/1C)[C@@H]1CCC(=C)[C@@H]2C[C@H](O[C@@H]3O[C@H](COC(=O)CC(=O)O)[C@@H](O)[C@H](O)[C@H]3O)C(=C)[C@@H]2C1`, the cytotoxicity call was “inactive”.
As for `O=C(OC1Cc2c(O)cc(O)cc2OC1c1cc(O)c(O)c(O)c1-c1c(C2Oc3cc(O)cc(O)c3CC2OC(=O)c2cc(O)c(O)c(O)c2)cc(O)c(O)c1O)c1cc(O)c(O)c(O)c1` (stereo not given), the cytotoxicity call was “inactive”.
With `C[C@H]1CN([C@@H](C)CO)C(=O)Cc2cc(NS(=O)(=O)c3ccc(Cl)cc3)ccc2O[C@@H]1CN(C)Cc1ccc(C(=O)Nc2ccccc2N)cc1`, the cytotoxicity call is “inactive”.
Turning to `Cc1noc(C)c1NC(=O)Nc1ccc2c(c1)CC(=O)N([C@@H](C)CO)C[C@H](C)[C@@H](CN(C)S(=O)(=O)c1cn(C)cn1)O2`, the cytotoxicity call is “inactive”.
To `COc1ccc(NC(=O)Nc2ccc3c(c2)C(=O)N([C@@H](C)CO)C[C@H](C)[C@@H](CN(C)Cc2ccccc2)OCCCC[C@@H](C)O3)cc1` belongs “inactive”.
Consider `Cc1ccc(S(=O)(=O)N(C)C[C@H]2Oc3c(NC(=O)c4cnccn4)cccc3C(=O)N([C@H](C)CO)C[C@H]2C)cc1`, for which the cytotoxicity call was “inactive”.
To `O=C1[C@@H]2CCCN2C(=O)[C@@H]2CCCN12` belongs “inactive”.
Regarding `C[C@H](CO)N1C[C@H](C)[C@H](CN(C)S(=O)(=O)c2ccc(F)cc2)Oc2ccc(NS(=O)(=O)c3cn(C)cn3)cc2C1=O`, the cytotoxicity call was “inactive”.
Take `CCCN(C)C[C@H]1OCCCC[C@H](C)Oc2ccc(NC(=O)Cc3ccccc3)cc2C(=O)N([C@@H](C)CO)C[C@H]1C`: the cytotoxicity call is “inactive”.
`CN(C)C(=O)C[C@@H]1CC[C@H]2[C@@H](COC[C@H](O)CN2S(=O)(=O)c2ccccc2)O1`: the cytotoxicity call was “inactive”.
Consider `NC(=O)OCC(COC(N)=O)c1ccccc1`, for which the cytotoxicity call is “inactive”.
For `N=C(NO)c1cccc(C(=N)NO)n1` the value was “inactive”; for `C[C@@H]1CN([C@H](C)CO)S(=O)(=O)c2ccc(C#Cc3ccc(F)cc3)cc2O[C@H]1CN(C)S(=O)(=O)c1ccc(F)cc1`, “inactive”.
On to `Cc1noc(C)c1NC(=O)N(C)C[C@@H]1OCCCC[C@@H](C)Oc2ccc(NC(=O)Nc3ccccc3)cc2C(=O)N([C@H](C)CO)C[C@@H]1C`, for which the cytotoxicity call is “inactive”.
Turning to `C[C@H]1CCCCO[C@@H](CN(C)Cc2ccc(C(=O)O)cc2)[C@@H](C)CN([C@@H](C)CO)C(=O)c2cc(NC(=O)Cc3ccccc3)ccc2O1`, the cytotoxicity call was “inactive”.
`CCCCCCCCCCCCCCCCCCCCCCO`: the cytotoxicity call was “active”.
For `C[C@@H]1CN([C@H](C)CO)C(=O)Cc2cc(NC(=O)CCC(F)(F)F)ccc2O[C@H]1CN(C)C(=O)Nc1cccc2ccccc12` the value was “inactive”.
Consider `Cc1ccc(S(=O)(=O)Nc2ccc3c(c2)C(=O)N([C@@H](C)CO)C[C@@H](C)[C@H](CN(C)Cc2ccc4c(c2)OCO4)OCCCC[C@H](C)O3)cc1`, for which the cytotoxicity call was “inactive”.
For `Cc1ccc(S(=O)(=O)N(C)C[C@H]2Oc3ccc(NS(C)(=O)=O)cc3C(=O)N([C@H](C)CO)C[C@H]2C)cc1` the value was “inactive”.
For `C[C@@H]1CN([C@@H](C)CO)C(=O)c2cc(NC(=O)NC3CCCCC3)ccc2O[C@@H](C)CCCCO[C@H]1CN(C)S(=O)(=O)c1ccc(F)cc1` the value was “inactive”; for `COCC#Cc1ccc2c(c1)O[C@H](CN(C)C(=O)c1ccccc1)[C@H](C)CN([C@H](C)CO)S2(=O)=O`, “inactive”; for `CN1C(=O)c2cc(NC(=O)c3cnccn3)ccc2OC[C@@H]2O[C@@H](CC(=O)NCC3CCCCC3)CC[C@H]21`, “inactive”.
Take `C[C@H](CO)N1C[C@H](C)[C@@H](CN(C)Cc2ccc3c(c2)OCO3)Oc2c(NC(=O)c3ccncc3)cccc2C1=O`: the cytotoxicity call is “inactive”.
Turning to `C[C@@H]1CN([C@@H](C)CO)C(=O)CCCn2cc(nn2)CO[C@@H]1CN(C)C(=O)Nc1ccc2c(c1)OCO2`, the cytotoxicity call is “inactive”.
For the compound `CN(C)CCCCNC(=O)[C@H]1C[C@H]2C(=O)N3CCC[C@H]3C(=O)N2[C@H]1c1cccc(OCCO)c1`, the cytotoxicity call is “inactive”.
For `Cc1noc(C)c1S(=O)(=O)N(C)C[C@H]1Oc2ccc(NS(=O)(=O)c3cccs3)cc2CC(=O)N([C@@H](C)CO)C[C@@H]1C` the value was “inactive”; for `C[C@H](N)C12CC3CC(CC(C3)C1)C2`, “inactive”; for `Cl.[NaH]`, “inactive”.
For the compound `Cc1ccc2c(=O)c3ccccc3n(CCCN)c2c1C`, the cytotoxicity call was “active”.
`CC(C)(C)NC(=O)N1CCC(CN)CC1`: the cytotoxicity call is “inactive”.
